# Experimental data taken from the supplement of paper PMC4604168 (melanoma cell lines).
# The other results are listed elsewhere or left out. Many values rest on one well or one pass, so single values are uncertain.
# What was measured:
# Test in all cases: cell count relative to DMSO control; melanoma cells; higher = more viable cells
# Conditions in all cases: library dose: low library concentration; 72 h
# [1] = system: WM115
# [2] = system: WM1716
# [3] = system: WM1745
# [4] = system: WM3526
# [5] = system: WM3619
# [6] = system: WM451Lu
# 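Further: cell number obtained by counting DAPI-stained nuclei in high-throughput microscope images with image analysis software, screen run in 1,536-well plates.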
SMILES,cell count [1] [%],cell count [2] [%],cell count [3] [%],cell count [4] [%],cell count [5] [%],cell count [6] [%]
"C=CCNC1=C2C[C@@H](C)C[C@H](OC)[C@H](O)[C@@H](C)/C=C(\C)[C@H](OC(N)=O)[C@@H](OC)/C=C\C=C(/C)C(=O)NC(=CC1=O)C2=O [Tanespimycin] + C[As](C)SC[C@H](NC(=O)CC[C@H](N)C(=O)O)C(=O)NCC(=O)O [Darinaparsin] (first compound 0.002 µM, partner dose 0.4 µM)",77.9,97,70,93.7,83.4,89
"Cc1cn(-c2cc(NC(=O)c3ccc(C)c(Nc4nccc(-c5cccnc5)n4)c3)cc(C(F)(F)F)c2)cn1 [nilotinib] + Cn1cc(C2=C(c3cn(C4CCN(Cc5ccccn5)CC4)c4ccccc34)C(=O)NC2=O)c2ccccc21 [Enzastaurin] (first compound 0.2 µM, partner dose 0.8 µM)",104,123,89,120,75.8,119
"CC[C@]1(O)C[C@H]2CN(CCc3c([nH]c4ccccc34)[C@@](C(=O)OC)(c3cc4c(cc3OC)N(C=O)[C@H]3[C@@](O)(C(=O)OC)[C@H](OC(C)=O)[C@]5(CC)C=CCN6CC[C@]43[C@@H]65)C2)C1 [vincristine] + Cc1cc(SCc2sc(-c3ccc(C(F)(F)F)c(F)c3)nc2C)ccc1OCC(=O)O [GW0742] (first compound 0.0001 µM, partner dose 2 µM)",62.3,48.8,85.4,85.5,58.5,65.1
"OCCn1cc(-c2cnc3nnn(Cc4ccc5ncccc5c4)c3n2)cn1 + Cc1cc(SCc2sc(-c3ccc(C(F)(F)F)c(F)c3)nc2C)ccc1OCC(=O)O [GW0742] (first compound 1 µM, partner dose 2 µM)",105,91.2,105,119,98.7,107
"COc1ccc(-c2ccc3c(N4CCOCC4)nc(N4C[C@@H](C)O[C@@H](C)C4)nc3n2)cc1CO + C/C(O)=C(\C#N)C(=O)Nc1cc(Br)ccc1Br [LFM-A13] (first compound 0.02 µM, partner dose 2 µM)",88.5,95.5,88,80.6,101,95.5
"CO[C@@H]1[C@H](N(C)C(=O)c2ccccc2)C[C@H]2O[C@]1(C)n1c3ccccc3c3c4c(c5c6ccccc6n2c5c31)C(=O)NC4 [Midostaurin] + Cc1cc(SCc2sc(-c3ccc(C(F)(F)F)c(F)c3)nc2C)ccc1OCC(=O)O [GW0742] (first compound 0.08 µM, partner dose 2 µM)",83.3,70.3,85.1,117,97.2,107
"COc1cc([C@@H]2c3cc4c(cc3[C@@H](O[C@@H]3O[C@@H]5CO[C@@H](C)O[C@H]5[C@H](O)[C@H]3O)[C@H]3COC(=O)[C@H]23)OCO4)cc(OC)c1O [etoposide] + C[C@]12O[C@H](C[C@]1(O)CO)n1c3ccccc3c3c4c(c5c6ccccc6n2c5c31)CNC4=O [Lestaurtinib] (first compound 0.02 µM, partner dose 0.004 µM)",87.6,95.5,96.9,104,106,96.1
"O=c1[nH]nc(Sc2ncc([N+](=O)[O-])s2)n1-c1ccc2c(c1)OCCO2 + Cn1cc(C2=C(c3cn(C4CCN(Cc5ccccn5)CC4)c4ccccc34)C(=O)NC2=O)c2ccccc21 [Enzastaurin] (first compound 0.2 µM, partner dose 0.8 µM)",114,106,99.3,104,96.3,110
"O=C(Nc1cc(C(F)(F)F)cc(C(F)(F)F)c1)c1cc(Cl)ccc1O + N.N.[Cl][Pt][Cl] [cisplatin] (first compound 0.016 µM, partner dose 1.6 µM)",101,97.6,98.6,93.1,118,108
"CC1(C)CCC(c2ccc(Cl)cc2)=C(CN2CCN(c3ccc(C(=O)NS(=O)(=O)c4ccc(N[C@H](CCN5CCOCC5)CSc5ccccc5)c(S(=O)(=O)C(F)(F)F)c4)cc3)CC2)C1 + Cn1cc(C2=C(c3cn(C4CCN(Cc5ccccn5)CC4)c4ccccc34)C(=O)NC2=O)c2ccccc21 [Enzastaurin] (first compound 0.4 µM, partner dose 0.8 µM)",110,77.2,9.87,100,103,87.3
"CN(NC(=O)CC(=O)NN(C)C(=S)c1ccccc1)C(=S)c1ccccc1 + C/C(O)=C(\C#N)C(=O)Nc1cc(Br)ccc1Br [LFM-A13] (first compound 0.006 µM, partner dose 2 µM)",75.8,64.3,9.86,102,25.1,99.8
"CN(NC(=O)CC(=O)NN(C)C(=S)c1ccccc1)C(=S)c1ccccc1 + Cc1cc(SCc2sc(-c3ccc(C(F)(F)F)c(F)c3)nc2C)ccc1OCC(=O)O [GW0742] (first compound 0.006 µM, partner dose 2 µM)",98.3,90.7,87.4,98.8,112,123
"Cc1cc(Nc2cc(N3CCN(C)CC3)nc(/C=C/c3ccccc3)n2)n[nH]1 + Cc1cc(SCc2sc(-c3ccc(C(F)(F)F)c(F)c3)nc2C)ccc1OCC(=O)O [GW0742] (first compound 0.04 µM, partner dose 2 µM)",98.9,115,94.3,123,88.1,108
"O=c1[nH]nc(Sc2ncc([N+](=O)[O-])s2)n1-c1ccc2c(c1)OCCO2 + C[C@]12O[C@H](C[C@]1(O)CO)n1c3ccccc3c3c4c(c5c6ccccc6n2c5c31)CNC4=O [Lestaurtinib] (first compound 0.2 µM, partner dose 0.004 µM)",97.4,98.7,90.5,91.7,95.2,105
"CN(C)S(=O)(=O)c1ccc2c(c1)/C(=C/c1cc3c([nH]1)CCCC3)C(=O)N2 + O=C(Oc1ccc([N+](=O)[O-])cc1)N1CCC(C(O)(c2ccc3c(c2)OCO3)c2ccc3c(c2)OCO3)CC1 [JZL184] (first compound 0.4 µM, partner dose 1 µM)",80.2,111,94.8,120,123,100
"COc1cc(Nc2ncc(F)c(Nc3ccc4c(n3)NC(=O)C(C)(C)O4)n2)cc(OC)c1OC [Tamatinib] + C/C(O)=C(\C#N)C(=O)Nc1cc(Br)ccc1Br [LFM-A13] (first compound 0.4 µM, partner dose 2 µM)",89.5,95.4,62.6,80.7,102,90.9
"Cc1cc(SCc2sc(-c3ccc(C(F)(F)F)c(F)c3)nc2C)ccc1OCC(=O)O + O=C(O)C(=O)Nc1sc2c(c1C(=O)O)CCNC2 [TCS401] (first compound 2 µM, partner dose 1.66667 µM)",102,112,91.9,102,82.5,115
"Cn1cnc2c(F)c(Nc3ccc(Br)cc3Cl)c(C(=O)NOCCO)cc21 [selumetinib] + C/C(O)=C(\C#N)C(=O)Nc1cc(Br)ccc1Br [LFM-A13] (first compound 0.015 µM, partner dose 2 µM)",88.8,114,92.1,57.7,82,84.2
"CCc1ccc(CCOc2ccc(CC3SC(=O)NC3=O)cc2)nc1 (stereo not given) [pioglitazone] + Cc1cc(SCc2sc(-c3ccc(C(F)(F)F)c(F)c3)nc2C)ccc1OCC(=O)O [GW0742] (first compound 2 µM, partner dose 2 µM)",94,84.8,89.5,109,129,95.4
"C[C@]1(O)C[C@@H](c2nc(-c3ccc4ccc(-c5ccccc5)nc4c3)c3c(N)nccn32)C1 + C/C(O)=C(\C#N)C(=O)Nc1cc(Br)ccc1Br [LFM-A13] (first compound 0.4 µM, partner dose 2 µM)",115,90.3,72.2,79.4,97.6,98.4
"CC(=O)O[C@@]12CO[C@@H]1C[C@H](O)[C@@]1(C)C(=O)[C@H](O)C3=C(C)[C@@H](OC(=O)[C@H](O)[C@@H](NC(=O)OC(C)(C)C)c4ccccc4)C[C@@](O)([C@@H](OC(=O)c4ccccc4)[C@H]21)C3(C)C [Docetaxel] + N.N.[Cl][Pt][Cl] [cisplatin] (first compound 0.0001 µM, partner dose 1.6 µM)",58.2,45.8,61.8,45.4,81.6,68.6
"CCCCCCCCCCCCCCCCCCOP(=O)([O-])OC1CC[N+](C)(C)CC1 [Perifosine] + Cn1cc(C2=C(c3cn(C4CCN(Cc5ccccn5)CC4)c4ccccc34)C(=O)NC2=O)c2ccccc21 [Enzastaurin] (first compound 0.4 µM, partner dose 0.8 µM)",109,92.6,110,105,93.4,121
"COc1cc(Nc2ncc(F)c(Nc3ccc4c(n3)NC(=O)C(C)(C)O4)n2)cc(OC)c1OC [Tamatinib] + Cc1cc(SCc2sc(-c3ccc(C(F)(F)F)c(F)c3)nc2C)ccc1OCC(=O)O [GW0742] (first compound 0.4 µM, partner dose 2 µM)",96.7,101,77,82.7,99,84.6
"CCCCCCCCCCCCCCCCCCOP(=O)([O-])OC1CC[N+](C)(C)CC1 [Perifosine] + C/C(O)=C(\C#N)C(=O)Nc1cc(Br)ccc1Br [LFM-A13] (first compound 0.4 µM, partner dose 2 µM)",103,106,94.5,79.9,112,89.1
"Cc1ccc(Nc2nccc(N(C)c3ccc4c(C)n(C)nc4c3)n2)cc1S(N)(=O)=O [Pazopanib] + Cc1cc(SCc2sc(-c3ccc(C(F)(F)F)c(F)c3)nc2C)ccc1OCC(=O)O [GW0742] (first compound 0.4 µM, partner dose 2 µM)",94.6,92.6,87.8,83.4,85.3,95.4
